ChEMBL document CHEMBL4689842, “EUbOPEN Chemogenomics Library wave 1” (2021)

Legend:
Format in all cases: toxicity, cell-based
Fibroblast = experiment: Multiplex assay against human fibroblast; settings: 10 µM, compound concentration 10 uM
Procedure, shortened: (§1)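 Per cents of healthy-nucleus cells form the tubulin, mitochondrial-mass and membrane-permeability phenotype values. Live cells were stained at seeding with Hoechst33342, BioTracker Green Microtubule Cytoskeleton Dye, MitoTracker Red and Annexin V Alexa Fluor 680. After compound addition they were imaged on a CQ1 microscope at 37°C and 5% CO2, and CellPathfinder machine-learning gating split them into Hoechst high-intensity objects or normal cells, normal cells into healthy, pyknosed or fragmented nuclei, and pyknosed cells into mitotic or apoptotic.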

U2OS = experiment: Multiplex assay against U2OS; settings: human, 10 µM, compound concentration 10 uM; procedure, shortened: as §1
HEK-293T = experiment: Multiplex assay against HEK293T; settings: human, 10 µM, compound concentration 10 uM; procedure, shortened: as §1;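 as to Population Tubulin-Different-Phenotype (%): share of the cells with healthy nuclei that show this phenotype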

## CN1CCN(C(=O)C(C)(C)c2ccc(C(=O)Nc3cn4cc(-c5ccncc5)ccc4n3)cc2)CC1 [T3-CLK]
Fibroblast; 12 h, replicate 1
  Population Membrane Permeable-Phenotype (%): 35%, 18%, 10%
  Population Tubulin-Different-Phenotype (%): 66%, 17%, 7%
Fibroblast; 12 h, replicate 2
  Population Apoptotic (%): 100% and 0%
  Population Fragmented Nuclei (%): 48%, 74%, 18%
  Population Healthy Nuclei (%): 45%, 16%, 70%
  Population Hoechst High Intensity Objects (%): 26%, 50%, 7%
  Population Mitochondria Different-Phenotype (%): 20%, 0%, 74%
  Population Mitotic Cells (%): 0% and 100%
Fibroblast; 24 h, replicate 1
  Population Membrane Permeable-Phenotype (%): 20%, 32%, 8%
  Population Mitochondria Different-Phenotype (%): 1%, 7%, 2%
  Population Tubulin-Different-Phenotype (%): 28%, 70%, 8%
Fibroblast; 24 h, replicate 2
  Population Apoptotic (%): 100%, 22%, 66%
  Population Fragmented Nuclei (%): 70%, 22%, 42%
  Population Healthy Nuclei (%): 19%, 66%, 51%
  Population Hoechst High Intensity Objects (%): 41%, 9%, 38%
  Population Mitochondria Different-Phenotype (%): 0%, 80%, 20%
  Population Mitotic Cells (%): 0%, 77%, 33%
U2OS; 12 h, replicate 1
  Population Fragmented Nuclei (%): 3% and 17%
  Population Membrane Permeable-Phenotype (%): 60%, 15%, 27%
  Population Mitochondria Different-Phenotype (%): 9%, 73%, 11%
  Population Tubulin-Different-Phenotype (%): 77%, 97%, 12%
U2OS; 12 h, replicate 2
  Population Apoptotic (%): 50%, 0%, 33%
  Population Fragmented Nuclei (%): 5%, 18%, 8%
  Population Mitochondria Different-Phenotype (%): 33%, 74%, 22%
  Population Tubulin-Different-Phenotype (%): 61%, 94%, 11%
  Total Cell Count: 91, 57, 383
U2OS; 24 h, replicate 1
  Population Mitochondria Different-Phenotype (%): 30%, 73%, 17%
  Population Tubulin-Different-Phenotype (%): 83%, 98%, 18%
U2OS; 24 h, replicate 2
  Population Mitochondria Different-Phenotype (%): 32%, 80%, 16%
  Population Tubulin-Different-Phenotype (%): 54%, 88%, 16%
  Total Cell Count: 95, 57, 301
HEK-293T; 12 h, replicate 1
  Population Apoptotic (%): 82% and 22%
  Population Fragmented Nuclei (%): 12%, 16%, 5%
  Population Healthy Nuclei (%): 17%, 59%, 66%
  Population Mitochondria Different-Phenotype (%): 93%, 14%, 8%
  Population Mitotic Cells (%): 17% and 77%
  Population Tubulin-Different-Phenotype (%): 90%, 62%, 13%
  Total Cell Count: 222, 797, 697
HEK-293T; 12 h, replicate 2
  Population Apoptotic (%): 50%, 20%, 8%
  Population Healthy Nuclei (%): 25%, 78%, 81%
  Population Mitochondria Different-Phenotype (%): 70%, 37%, 15%
  Population Pyknosed Nuclei (%): 69%, 18%, 12%
  Total Cell Count: 154, 950, 1570
HEK-293T; 24 h, replicate 1
  Population Apoptotic (%): 92%, 34%, 25%
  Population Healthy Nuclei (%): 12%, 58%, 79%
  Population Mitochondria Different-Phenotype (%): 95%, 28%, 9%
  Population Mitotic Cells (%): 7%, 65%, 74%
  Population Pyknosed Nuclei (%): 72%, 24%, 14%
  Total Cell Count: 225, 735, 914
HEK-293T; 24 h, replicate 2
  Population Apoptotic (%): 81%, 8%, 26%
  Population Healthy Nuclei (%): 25%, 89%, 85%
  Population Hoechst High Intensity Objects (%): 8%, 2%, 5%
  Population Mitochondria Different-Phenotype (%): 85%, 11%, 50%
  Population Mitotic Cells (%): 18%, 91%, 73%
  Population Pyknosed Nuclei (%): 70%, 2%, 10%
  Total Cell Count: 147, 2020, 975

Not every entry of the source has a single result; some have several. The list is limited to them. The source may hold further records. The records of an entry are repeated measurements across runs, samples, wells, individuals or studies.
